Source: article PMC4336329 (PLoS ONE, 2015)
The campaign covered roughly 310,000 compounds. About 2,200 (0.71%) showed an effect of 50% or more. The effect is printed as a negative number. The list shows a part of the results.

Biological target: human ether-à-go-go-related gene (hERG) potassium channel (human, UniProt Q12809)
Experiment: primary screen, population patch clamp on CHO cells stably expressing hERG

Sequence of human ether-à-go-go-related gene (hERG) potassium channel (Q12809 whole entry, looked up): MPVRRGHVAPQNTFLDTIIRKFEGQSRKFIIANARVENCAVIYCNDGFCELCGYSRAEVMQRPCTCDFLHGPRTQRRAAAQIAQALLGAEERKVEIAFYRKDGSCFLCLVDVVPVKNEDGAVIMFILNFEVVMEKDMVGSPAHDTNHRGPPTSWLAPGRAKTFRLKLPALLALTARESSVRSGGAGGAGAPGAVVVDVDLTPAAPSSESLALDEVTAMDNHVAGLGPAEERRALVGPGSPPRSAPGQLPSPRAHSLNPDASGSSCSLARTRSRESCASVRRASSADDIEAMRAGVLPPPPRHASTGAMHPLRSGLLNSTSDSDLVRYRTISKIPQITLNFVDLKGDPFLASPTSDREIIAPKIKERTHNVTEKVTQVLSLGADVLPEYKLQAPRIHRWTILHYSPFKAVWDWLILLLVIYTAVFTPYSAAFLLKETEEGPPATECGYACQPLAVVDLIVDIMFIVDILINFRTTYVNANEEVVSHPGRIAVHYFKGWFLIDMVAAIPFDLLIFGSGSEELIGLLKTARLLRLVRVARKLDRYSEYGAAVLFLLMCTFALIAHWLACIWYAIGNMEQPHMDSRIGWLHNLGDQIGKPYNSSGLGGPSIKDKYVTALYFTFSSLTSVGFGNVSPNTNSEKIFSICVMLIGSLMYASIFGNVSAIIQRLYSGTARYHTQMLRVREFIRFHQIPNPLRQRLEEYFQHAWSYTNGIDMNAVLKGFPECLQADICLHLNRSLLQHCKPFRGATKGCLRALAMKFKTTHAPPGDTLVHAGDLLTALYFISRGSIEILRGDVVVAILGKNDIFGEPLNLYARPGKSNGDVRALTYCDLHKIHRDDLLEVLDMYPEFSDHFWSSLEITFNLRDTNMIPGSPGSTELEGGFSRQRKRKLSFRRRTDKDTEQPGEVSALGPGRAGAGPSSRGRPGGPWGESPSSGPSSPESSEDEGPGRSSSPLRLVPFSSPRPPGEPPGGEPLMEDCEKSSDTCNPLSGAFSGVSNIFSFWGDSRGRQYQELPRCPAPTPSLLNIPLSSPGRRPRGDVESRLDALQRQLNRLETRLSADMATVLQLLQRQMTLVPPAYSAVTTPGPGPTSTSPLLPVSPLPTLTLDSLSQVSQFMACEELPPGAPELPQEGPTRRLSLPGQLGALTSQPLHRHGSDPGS

In order of rising “hERG current change (%, negative = inhibition) at 1uM” value:
1. CCn1c(SCC(=O)Nc2cccc(OC)c2)nc2c(c1=O)SCC2  -31.5%
2. O=C(CCCn1c(SCc2cccc([N+](=O)[O-])c2)nc2ccccc2c1=O)NCC1CCCO1 (centres unmarked)  -29.2%
3. C=CCc1ccc(OCC(O)CN2CCN(Cc3ccccc3)CC2)c(OC)c1.Cl (centres unmarked)  -10.6%
4. CCCNC(=O)c1cc2c3ccccc3n(C)c2s1  -6.43%
5. CCCN1CCN(CCCNC(=O)c2ccc3c(Cl)c4c(nc3c2)CCCC4)CC1  -4.36%
6. CCSc1nnc(-c2cnn(-c3ccccc3)c2-n2cccc2)n1C  -4.01%
7. Cc1cc2nc3n(c2cc1C)CC1CC(C(=O)NCc2ccccc2)N(C)C31 (centres unmarked)  -3.9%
8. COc1cc(NS(=O)(=O)c2ccc(NC(=O)c3ccc(C)o3)cc2)nc(OC)n1  -2.48%
9. O=C(Nc1ccccn1)c1ccc(COc2ccccc2Cl)o1  -1.97%
10. COc1cc(OC)cc(C(=O)N[C@H](C(=O)Nc2cc(C)cc(C)c2)C(C)C)c1  -1.81%
11. O=c1cccc(-c2ccccc2)[nH]1  -1.8%
12. O=C(OCC(=O)N1CCC(Cc2ccccc2)CC1)c1ccccc1NCCO  -1.48%
13. Cc1ccc(CN2CC(C(=O)Nc3cc(C)ccn3)CC2=O)cc1 (centres unmarked)  -0.898%
14. O=C(c1ccc(OC2CCN(C/C=C/c3ccccc3)CC2)cc1)N1CCCCC1  -0.0296%
15. O=C(CCCn1cnc([N+](=O)[O-])n1)Nc1ccc(Cl)c(Cl)c1  0.498%
16. CCOC(=O)N1CCN(S(=O)(=O)c2ccc(OCC(=O)OC)c(Cl)c2)CC1  0.861%
17. CC1Cc2ccccc2N1S(=O)(=O)c1cccc(C(=O)NCc2ccncc2)c1 (centres unmarked)  1.08%
18. Cc1cc(=O)oc2cc(Oc3ncccc3[N+](=O)[O-])ccc12  1.11%
19. C/C(=N\NS(=O)(=O)c1ccc([N+](=O)[O-])cc1)c1c[nH]c2ccccc12  1.12%
20. COc1ccc(NC(=O)COC(=O)CN2C(=O)NC(C)(C)C2=O)cc1  1.75%
21. Cc1cc(NC(=O)C(C)C)ncc1NC(=O)c1ccco1  1.82%
22. CC(C)C(=O)NC(c1ccccc1Cl)c1c(O)ccc2ccccc12 (centres unmarked)  2.17%
23. S=C(NCc1ccco1)Nc1ccc(Br)cn1  2.18%
24. Cc1cc(C)c(S(=O)(=O)c2ccc(Cl)cc2)c(Cl)n1  2.22%
25. CCOC(=O)C1CCCN(C(=O)/C=C/c2cc(OC)c(OC)c(OC)c2)C1 (centres unmarked)  2.42%
26. O=S(=O)(NCc1ccc(Cl)cc1)c1ccc(Cl)nc1  2.6%
27. NC(=O)CSc1nnc(-c2ccc(O)cc2)n1Cc1ccco1  2.96%
28. Cn1cc(CN2CCCC(CO)(Cc3cccc(Cl)c3)C2)cn1 (centres unmarked)  3.46%
29. O=C(c1ccccc1)c1ccccc1C(=O)N1CCN(C(=O)c2ccccc2)CC1  4.35%
30. CCOC(=O)N1CCC(NC(=O)c2cc(C(=O)Nc3ccc(OC)c(OC)c3)ccc2CO)CC1  4.41%
31. CCS(=O)(=O)N1Cc2ccccc2CC1C(=O)Nc1nnc(C2CC2)s1 (centres unmarked)  4.92%
32. CC(C)(C)C(=O)Nc1nnc(CSCc2ccccc2F)s1  5.11%
33. Cc1ccc2oc(-c3ccc(NC(=O)CC(C)C)cc3)nc2c1  5.3%
34. COc1ccc(C(=O)N2CCCCCCC2)cc1OC1CCN(C(C)C)CC1  5.45%
35. CCCn1c(N)c(N(CCOC)C(=O)c2cccc(S(=O)(=O)N3CCCc4ccccc43)c2)c(=O)[nH]c1=O  5.62%
36. O=C(CN1c2ccccc2Sc2ccccc21)NNC(=O)Nc1cccc(Cl)c1  5.83%
37. CC1CCN(S(=O)(=O)c2ccc3c(c2)c(=O)c(C(=O)NCc2ccccc2Cl)cn3C)CC1  6.35%
38. Cc1ccc(-c2cc(C(=O)N/N=C/c3ccc(Cl)cc3)n[nH]2)o1  6.74%
39. CC(=O)c1cc(C#N)c(SCc2ccccc2C#N)nc1C  7.39%
40. O=C(N/N=C/c1ccccn1)c1ccc(NC(=O)c2ccccc2Cl)cc1  7.55%
41. CC(=O)Nc1ccc(NC(C)=C(C#N)C#N)cc1  7.87%
42. CSC1=NCCN1S(=O)(=O)c1ccc(Cl)cc1  8.08%
43. CN1CCN(C(=O)CN(CCc2ccccc2)S(C)(=O)=O)CC1  8.13%
44. COc1ccc(OCC(=O)Nc2ccc(Cl)cc2C(=O)c2ccccc2)cc1  8.19%
45. COc1cccc(CNC(=O)c2cc(S(=O)(=O)N3CCOCC3)cn2C)c1  8.25%
46. C/C(=N\OC(=O)c1cccc(C)c1)c1sc(-c2ccccc2)nc1C  8.48%
47. Cc1ccc(CNC(=O)COC(=O)c2cnc(C)cn2)cc1  8.72%
48. Cc1ccc(C(=O)Nc2ccccc2C(=O)N2CCCC2)cc1[N+](=O)[O-]  8.85%
49. O=C(NCc1ccccc1)C1c2ccccc2Oc2ccccc21  9.36%
50. CCOc1ccc(Cc2nnc(SCC(=O)Nc3c(C)cccc3C)[nH]c2=O)cc1  9.68%
51. Cc1ccn2cc(CCNC(=O)CC(C)(C)C)nc2c1  9.76%
52. CCOC(=O)c1ccc(Nc2nc(C)cc(=O)[nH]2)cc1  9.96%
53. CCOC(=O)CCCNC(=O)CN1C(=O)NC2(CCCCCC2)C1=O  10.3%
54. Cc1ccc(C(=O)N/N=C\c2ccc(OC(=O)c3cccc(F)c3)cc2)cn1  10.3%
55. CCN(CC)CCOc1ccccc1C(C)=O.O=C(O)C(=O)O  10.4%
56. CC(C)(C)c1cc(NC(=O)CCl)n(-c2ccccc2)n1  10.5%
57. O=C(COC(=O)c1cccnc1Cl)c1ccc(Cl)cc1Cl  10.9%
58. C=CCC1(CC=C)CCCN1C(=O)CC1C(=O)NCCN1Cc1ccc(OC)c(OC)c1 (centres unmarked)  10.9%
59. O=C1c2ccccc2NC(c2cccc(O)c2)N1O (centres unmarked)  11%
60. Cc1cc(NC(=O)Cn2c(=O)c3c(ncn3CC(C)C)n(Cc3ccccc3)c2=O)no1  11.5%
61. COc1cc(CCCN2C(=S)NC[C@@H]2CC2CCCCC2)cc(OC)c1OC  11.5%
62. Cc1cccc(NC(=O)C(CCC(N)=O)NC(=O)OCc2ccccc2)c1 (centres unmarked)  11.6%
63. Cc1csc(NC(=O)c2cccnc2Cl)n1  11.8%
64. O=C(NCCN1CCNCC1)c1ccccc1O  11.9%
65. Cc1cc(=O)oc2cc(NC(=O)c3ccc(OC(F)F)cc3)ccc12  12%
66. O=C(Nc1ccc(F)cc1)Nc1ccccc1NS(=O)(=O)c1cccs1  12.1%
67. CCOc1ccc2nc(N(CCN(C)C)C(=O)c3ccc4ccccc4c3)sc2c1.Cl  12.1%
68. Cc1cccc(-c2oc3ccc(-c4ccc5c(c4)OCO5)cc3c2/C=C/c2ccc(N)cc2)c1  12.3%
69. COC(=O)C(Cc1ccccc1)NC(=O)c1cc(S(=O)(=O)N(C)C)ccc1Cl (centres unmarked)  12.8%
70. Cc1csc(NC(=O)CSc2nnc3c4ccccc4nc(C(C)(C)C)n23)n1  12.8%
71. Cc1cccc(C)c1OP(N)(=O)Oc1c(C)cccc1C  12.9%
72. O=C1NCC2=C1C(c1ccccc1)Nc1ccccc1N2 (centres unmarked)  13%
73. O=C1CCC(=O)N1Cc1c(Cl)cccc1Cl  13%
74. N#Cc1ccc(Oc2cnccn2)cc1  13.1%
75. CCn1c(SCC(=O)NCCc2ccccc2)nc2c(c1=O)SC(C)C2 (centres unmarked)  13.6%
76. Cn1c(CN2CCC(C(N)=O)CC2)c(C#N)c2ccccc21  13.7%
77. CN(C)C=O.CN(C)c1ccc(/C=C/c2nc3ccccc3c(=O)n2-c2ccc(C(=O)O)cc2)cc1  13.9%
78. CCn1c(-c2ccccn2)nc2cc(S(=O)(=O)N(C)C)ccc21  14.1%
79. CCC(C(=O)O/N=C(\N)c1cccc(C)c1)c1ccccc1 (centres unmarked)  14.2%
80. COc1ccccc1NC(=O)C(=O)N1N=C(C(C)C)CC1(O)C(F)(F)F (centres unmarked)  14.9%
81. Cc1ccc(C)c(NC(=O)CSc2nc3ccc(N4C(=O)c5ccccc5C4=O)cc3s2)c1  15.6%
82. CCOC(=O)C1C(c2ccccc2O)NC(=O)NC1(O)C(F)(F)F (centres unmarked)  15.9%
83. Cc1ccc2nc(C(C)O)[nH]c2c1 (centres unmarked)  15.9%
84. COc1ccc(/C=N\NC(=O)c2cccc(F)c2)cc1COc1ccccc1  16.1%
85. CC1CC(C)CN(c2ncc3c(n2)CC(c2ccccc2Cl)CC3=O)C1 (centres unmarked)  17.9%
86. NC(=O)CNC(=O)c1ccc(Cl)cc1  18%
87. O=C(O)C1CCN(C(=O)CSc2nc3ccccc3c(=O)n2-c2ccc(Cl)cc2)CC1  19.7%
88. Cc1ccc(-c2c(C(=O)N/N=C/c3sccc3C)nnn2-c2nonc2N)cc1  21.4%
89. Cc1ccc(-c2cc(C(=O)Nc3cnn(C(C)C)c3)no2)cc1  22.7%
